Measurements: PubChem BioAssay AID1508624 (National Center for Advancing Translational Sciences (NCATS), 2021)
Hit rate of the full screen: of about 48,000 compounds, about 120 (0.25%) were called active. Not shown: some 4% with an inconclusive outcome. Calls follow the shape of the dose curve; as a rule, active = well fitted activation curve with a large enough effect; inconclusive = small, poorly fitted or top-dose-only effect, or another doubt; inactive = no such curve, though single readings can be large or run the other way. The list shows a part of the results.

experiment: Primary qHTS for Identification of Small Molecule Activators of Huntingtin-Antisense Promoter Activity; settings: HEK293 HTT-AS promoter firefly luciferase reporter, 24 h; series mostly up to 57.5 µM; activity change, positive = activation: at the top concentration; also: nearly all actives have a fitted effect of over 55% in size
Summary of the method: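 HEK293 cells carrying firefly luciferase reporters were seeded at 2,500 per well in Opti-MEM and cultured for 24 h. They were then treated with compounds at up to 57.5 uM final for 24 h at 37 degrees C before Dual-Glo luminescence readout.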

SMILES | activity change, positive = activation
CN(C)c1ccc(CN2CCc3nc(N4CCN(c5ccccn5)CC4)ncc3C2)cc1 | inactive: -42.3%
Cc1cc(OC(C)C(=O)N2CCN(CCc3ccccn3)CC2)ccc1Cl (stereo not drawn) | inactive: -7.14%
Cc1nc2c(c(SCC(=O)Nc3ccccc3C(F)(F)F)n1)CCC2 | inactive: -34.6%
Cc1c(F)cccc1NS(=O)(=O)c1cccs1 | inactive: -5.19%
CCC(CC)C(=O)Nc1ccc(OCc2cc(=O)n3ccc(C)cc3n2)cc1 | inactive: -8.66%
CCOC(=O)C1CCN(C(=O)c2nn(-c3ccc(C)cc3)c(=O)c3c2c2ccccc2n3C)CC1 | inactive: 2.1%
CCOc1ccccc1C(N)=O | inactive: -3.67%
CCOc1ccccc1N1CC(c2nc3ccccc3n2CCCOc2ccccc2)CC1=O (stereo not drawn) | inactive: -24.3%
COc1ccccc1Cn1ccn(CC(=O)Nc2c(C)cc(C)cc2C)c(=O)c1=O | inactive: -17.4%
Cc1nnc(N2CCN(c3ccc(Cl)cc3)CC2)c2c1nnn2Cc1ccc(F)cc1 | inactive: -5.35%
CC(C)C(=O)NC1CC(=O)N(c2ccc3c(c2)OCCO3)C1 (stereo not drawn) | inactive: 2.13%
Cc1c(C(=O)Nc2cccc(F)c2)sc2nc(-c3cc4ccccc4oc3=O)[nH]c(=O)c12 | inactive: -7.57%
COc1ccc(NC(=O)c2c(NCc3cccs3)sc3c2CCCCC3)cc1 | inactive: 12.3%
CN(C1CCCCC1)S(=O)(=O)c1ccc(F)c(C(=O)Nc2ccc(C(F)(F)F)cc2)c1 | inactive: -35.7%
Cc1ccc(-n2nc(C)c3c(C)cc(=O)n(CC(=O)Nc4ccc(C(C)C)cc4)c32)cc1 | inactive: -3.78%
CCc1ccc(NC(=O)C(=O)NCCc2sc(-c3ccc(OC)c(OC)c3)nc2C)cc1 | inactive: 14%
CC1CCCCN1C(=O)c1ccc2c(c1)N(Cc1ccc(Cl)cc1)C(=O)c1ccccc1S2=O (stereo not drawn) | inactive: -29.4%
COc1cc(OC)cc(C(=O)NCCc2csc(-c3cccc(C)c3)n2)c1 | inactive: -22.7%
CCOC(=O)c1sc2ncn(CC(=O)Nc3cccc(C)c3)c(=O)c2c1C | inactive: -4.65%
CCOC(=O)c1[nH]c2ccccc2c1NC(=O)c1c(F)cccc1F | inactive: -11.9%
O=C(NCc1ccccc1Cl)c1ccc2c(c1)N(Cc1ccccc1)C(=O)c1ccccc1S2 | inactive: -13.2%
O=C(Nc1cccc(Cl)c1)C1CCN(c2nc3ccccc3nc2C(F)(F)F)CC1 | inactive: 3.52%
CCc1cccc(NC(=O)c2cc(-c3ccccc3)n[nH]2)c1 | inactive: 14.1%
CCCN(CCC)C(=O)c1c[nH]c2ccc(S(=O)(=O)N(C)c3ccc(OCC)cc3)cc2c1=O | inactive: -13.6%

SMILES | activity change, positive = activation
COc1ccc(CCNC(=O)c2ccc3c(Cl)c4c(nc3c2)CCCC4)cc1OC | inactive: -54.9%
COCCCNC(=O)C1CCCN(c2ncnc3onc(C)c23)C1 (stereo not drawn) | inactive: -23.1%
Cc1ccc2oc(C(=O)Nc3nc(-c4ccc(F)cc4)ns3)c(C)c2c1 | inactive: 0.793%
CCc1ccc(C(=O)c2cn(CC(=O)Nc3ccc4c(c3)OCCO4)c3ccc(CC)cc3c2=O)cc1 | inactive: -10.7%
Cc1ccccc1OCC(=O)Nc1ccc(C(=O)OCc2cc(=O)n3c(C)csc3n2)cc1 | inactive: -11.2%
COc1cccc(NC(=O)CSC2=Nc3ccccc3C3=NC(CC(=O)NCc4cccs4)C(=O)N23)c1 (stereo not drawn) | inactive: 8.32%
COc1ccc(C2c3c(oc4cc(C)cc(C)c4c3=O)C(=O)N2Cc2ccco2)cc1OC (stereo not drawn) | inactive: -4.47%
COc1ccc(CNC(=O)CSCc2cnn(-c3ccccc3)c2-n2cccc2)cc1OC | inactive: -45.8%
Cc1cccc(N2CCN(C(=O)c3cc4c(=O)[nH]c5ccc(C)cc5c4s3)CC2C)c1 (stereo not drawn) | inactive: -68.2%
COc1ccc(Cn2c(CNC(=O)Cc3cccc([N+](=O)[O-])c3)nc3cccnc32)cc1 | inactive: -11.6%
CC(=O)N1CCN(c2nc3c(F)cc(F)cc3s2)CC1 | inactive: 23.1%
COc1ccc(C(C(=O)Nc2ccc(C(C)C)cc2)N(C)C(=O)Cc2cccs2)cc1 (stereo not drawn) | inactive: -14.2%
Cc1ccccc1Nc1nnc(-c2ccc(C)c(S(=O)(=O)N3CCN(C)CC3)c2)c2ccccc12 | inactive: 9.94% [at 11.5 µM, percent change from vehicle, -100% = no light]
COc1ccc(S(=O)(=O)NC(C)C)cc1-n1cnnn1 | inactive: 3.87%
O=C(Nc1ccc(OC(F)(F)F)cc1)C1CCCN(S(=O)(=O)c2ccc(Br)s2)C1 (stereo not drawn) | inactive: -17.4%
Cc1ccc(NC(=O)Cn2c(SCc3cccc(F)c3)nc3ccncc32)c(C)c1 | inactive: -12.5%
CC(C)(C)c1ccc(C(=O)Nc2nc3nc(-c4ccccc4)cc(=O)n3[nH]2)cc1 | inactive: -16.4%
C#CC(C)(CC)NC(=O)Cn1nnc(-c2ccc(OCc3ccccc3Cl)cc2)n1 (stereo not drawn) | inactive: -28.1%
COc1ccc(Br)cc1CNC(=O)CN1C(=O)CCCc2ccccc21 | inactive: -11.7%
COc1cccc(NC(c2nnc(-c3ccccc3)o2)c2ccc(F)cc2Cl)c1 (stereo not drawn) | inactive: -27.4%
COc1ccc(C(=O)NCC(c2cccnc2)N2CCN(c3ccccc3OC)CC2)cc1 (stereo not drawn) | inactive: -53%
Cc1coc2c1c(C)cc1oc(=O)c(CC(=O)NCCc3ccc(Cl)cc3)c(C)c12 | inactive: -3.33%
O=C(NCCc1ccc(Cl)cc1)C(=O)NCC(c1ccco1)S(=O)(=O)c1ccccc1 (stereo not drawn) | inactive: -18.3%
Cc1ccc(NC(=O)C(=O)NCC(c2cccnc2)N2CCN(C)CC2)cc1 (stereo not drawn) | inactive: -2.73%
